# Results reported in article PMC10726135.
# The list shows a part of the results. At the low end of the ranking the order means little. The protein was read in a cell extract, so binding may be indirect.
# Target: T1, HNF4alpha2 (COS-7 nuclear extract) (UniProt P41235)
# T1 sequence: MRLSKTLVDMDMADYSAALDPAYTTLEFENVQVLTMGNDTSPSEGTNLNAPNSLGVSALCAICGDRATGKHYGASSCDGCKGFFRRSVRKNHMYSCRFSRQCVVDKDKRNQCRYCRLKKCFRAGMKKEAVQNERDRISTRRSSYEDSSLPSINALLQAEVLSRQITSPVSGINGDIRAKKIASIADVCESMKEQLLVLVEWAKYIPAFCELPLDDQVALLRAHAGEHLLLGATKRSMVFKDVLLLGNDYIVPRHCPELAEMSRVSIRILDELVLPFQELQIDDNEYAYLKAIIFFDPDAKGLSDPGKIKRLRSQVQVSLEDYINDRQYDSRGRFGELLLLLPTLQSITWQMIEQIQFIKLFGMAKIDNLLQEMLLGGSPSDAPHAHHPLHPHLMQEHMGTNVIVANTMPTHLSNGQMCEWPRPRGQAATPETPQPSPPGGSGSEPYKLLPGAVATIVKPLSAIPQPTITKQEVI
# Assay: protein-binding microarray
# Settings: COS-7 nuclear extract on double-stranded Agilent 4x180k PBM; binding buffer, salt, pH and temperature not given; high values mean tight binding; double strand, one strand shown; sequences stand for … in …GCCTAGGGAGATTAGAGTATCGGTCGA
row,Sequence,binding signal (log2 normalized intensity)
1,TCTACCTGACCTCCCAAAATTCTTCACATA,-0.0778
2,GGGTCAATTAGCTTGAGCGAGACAGCGGGT,-0.42
3,CCCTTGCTCTGTTTTCTGACGCAACAGAAA,0.154
4,GGCATCAGCCCCAATGGCTAAGGTCACCAT,2.73
5,CCCCAGTTCCCTGGGTCGCCAAGCCGGAGG,-1.11
6,GAGGCCTAGGCAGTCCACAGACAAAGGCCC,-1.03
7,TAAACCAACTATAGAAAGCCTTTGAACTGT,2.14
8,TTATCTCTGTAAAAGCCAGCATTTCTGTGG,1.32
9,ATGAGGATACTGATAACATGAGGTAGAGGG,-0.983
10,AGATGCCGTCGGCACACACGCATGGCCGGC,-1.17
11,CGCCCCCAACGGGCCACGCCCTGCACCCTA,3.97
12,ATGTTGTCCCTGCCCTTTGTCCAGGGTGAG,2.9
13,GGGCCTCTGAGATAAGGGTTCAAACTCAGT,1.31
14,TTTCTAAGGACACAACAGAATGTGACTGCC,-0.313
15,CATCCAAGGACTTTGTAATCATATTGATAA,2.01
16,GTGCAGTTTTTCTGCCGAAGATATTTAACC,0.0759
17,AATTCCAAAGTTCAAGTAGAGCTTCACCTC,3.01
18,GCTCATCCATTTTCCTCTGAAAATCATTCA,-1.13
19,TTTGTCTTAGGGGGTCTGGTTTCTAGGTAG,1.34
20,GAGGGCTCTGTCTGCTGGGCCTTCAGCTTG,-1.02
21,GGGCAAATCTGAGGTCAAAGCTGTCAGAGA,-0.198
22,GGCAGACAGGTTGGAGACGCAGAGAAGCAC,-1.06
23,AGCTGACAGATGGTGACCAGACTACCTCTT,-0.921
24,TCATCGCACCGGCAGGGGAGAACTTCCTCC,-0.988
25,TTCCTCCCTCCCTCTTCCCTCATATAATTT,2.52

row,Sequence,binding signal (log2 normalized intensity)
1,TACTTACAGACTTTCAACATTATGAAATCT,-1.14
2,ACAAAAGAAAATGTGCCCTTTGGACAGAAA,5.13
3,GCCACCCTCTGGCCACCAGTTATTCATGTC,1.1
4,GATAATATAGTCACTATACAACTAGGCTAC,-1.09
5,TCAGTTTTGCCATCAGCTCCCTCCCCTGGT,3.53
6,AATAGCCCCAAATTCCTTTCAAACTGTATT,1.63
7,CATTTGCCATTTCTGAGCAAATATTTGGGG,1.24
8,CAGTTAAGCAGGTTCACATTTTTGTCATCT,0.953
9,GGAGGGCGGGGAGTCTCCTGGGTAATCACC,-1.08
10,AGGTAAAGGCATGCTTGGCATCCCTGTGGT,-0.719
11,TCAGGCACAGCTCGACCTTTGACCTTCGGC,10.2
12,CCATGCCATGCATTTCAGAATTTTGCTCTG,-0.519
13,GAACCAAGATATGCTAACATCCCTTGCAGA,-1.18
14,ACCTTCCAGACAGAGAGGTCAGCAAATGTG,1.07
15,GAACGCTTGTGATTACACTGGGCTCACCTG,-0.974
16,GGACTAAATTCTGCGGCGGAAGGACACAGA,-1.04
17,ACAGTTACCGAGAGGTAACTCCCCCTTCAT,2.84
18,GGGAATCAGTCCATAAATACACAATCTGAA,-0.859
19,GCTGAAGTTCCCAGCCCTTCACCAGAGCCG,-0.479
20,AGGGTAGTTTGGAGATGCCGTTAAGCAGAT,0.555
21,GTGTTTAATGTTTTCATTCTGATTTGCACA,0.839
22,CCCCAGTAACAAAGGAAAGAGCTAACATAT,-1.19
23,TCAACTATTTAAATAGCTCAAGCCTGTTCC,-1.04
24,CGATAAACCCAGGCAATGACTCCAAAGTTC,2.05
25,GCTCGTGTCATCTCTGGCTAACAGGTCAGG,1.85

row,Sequence,binding signal (log2 normalized intensity)
1,AGTCCAAAGGTCAGCCGGGGAAGGTGCAGG,5
2,CTTTGTCCTAGTGCATGCTGGGAGTCGGGC,0.806
3,CCAGTGAGTGCAGCAGTGTACTTGAGCTTC,-0.0304
4,TATGTCAGGCTCAGGGACCCAGCGGAATGC,-1.13
5,CACCAAGGCCGGAAAAGATTAGATTGCTCA,-1.06
6,TTTATCTCCTCCCCTTGAGACTTTAATCTC,2.33
7,AGTCAGTTCCCCTGCGGACTCTGGAACCAT,3.16
8,TGTGGTAATAAGTTGGTGGACGCTGGGGAA,0.861
9,ACTAAATGCAGCCTTGGGCAAGTTACTTAA,-1.11
10,AGATGACCTTTGCCCTTGACTTTTTGTGGG,7.08
11,TGGTTGCTAAGAGACAGCTCCACAGCTGGA,-1.12
12,ATGACCCAAACTTCACAAAAATGAGTGCAA,-0.838
13,ACTAAATCTCTCCTAGAGAAAGGGGCTTAG,-1.13
14,ATAATTAGGTCTTTTGGTGAGTCTTTGCCC,1.68
15,CCGGGGCCTGGGCGCGCCTGCCCTTCGCTC,2.22
16,AAATCTGATCTTTCCTCTAAGTGCCCAAAT,0.727
17,GGACACAGTTCAGGCCATCACACTCCTACC,-1.07
18,TACCAGCTGGGGTTTTACCAGGCACGCATG,-0.996
19,GTGTGCTCGAGGTGGACTTTCCCCCCTCAC,6.09
20,CTCCTCTGCCTCCAGCTGTTGGTGACTGAC,0.79
21,GCTCCCATCCCCCCAAAGGCTCTCTGTTGA,3.99
22,CTCATTCCTATTCGGTGCTGACCTTTGTTC,7.77
23,CCCTTGACCAAGCAGCTGTTTGACCAAAGC,-1.08
24,TCCGCTTGATGCCTGTTGCTCAGAATTACT,-1.21
25,TATGGCCCACAAAGCCTAAAATATTCACTA,-1.14

row,Sequence,binding signal (log2 normalized intensity)
1,AAAGAATTCGTCCAGGGCCGCCCAAGCGAA,-0.993
2,AACAAACAAAAACCAAAAAAACTTAACAGA,-1.13
3,GACAGCAGGAGTGGGAGAAAGCTTTGGACT,1.77
4,GTTATCTCGGGGATGGCATGTCTCTGGTCG,1.64
5,ACTGTCCTAGGTGCTGAAGATGCAACAGTG,0.985
6,AAAGGAGGAATCTGTGAAGGTCAGGAGCCC,-0.39
7,ATCCACATGTGGGTCCAAAGAACATTGCAT,2.22
8,AACAAGTAAGGAAGACAAGACAAGGAAGTT,-1.13
9,CAAAACTGGCAAAACTGGTCAATATCCACA,-0.887
10,TGGGGTTCAGCCACACCAAGTCTGGACCTG,1.94
11,TCTTTGTTCAGAGGGCATGTTGAGTGGAAT,2.13
12,CAGAAGGGACTAGCCTTATCTCAGATGAGA,-1.09
13,TCTAGTCTAGTCCAAACTGCAACCTGATAA,-1.14
14,AGGGAGATAGAGAAAGAAAAAGTACACACC,-1.09
15,AGGCAAGATCCGAAGTCTAGGACGTTATCA,-1.14
16,TTGGGACAAAGTTTGCCTGGGCTCTAGACA,-1.05
17,CCTCTTCTGGGAAGAGTAGATAAGCAGATC,-1.2
18,GTGTTTATGGCAAATTGATATCCTGTCTAT,0.807
19,CTTACATTTTGCTCTTTGTACCGTTTGAAC,3.49
20,AGCAGAAACATAGAAAGGAGTACACACCAT,-1.1
21,ACATTTCAAAAGCTGTGTGCTCCTGTAGAA,-1.07
22,ACATGGTTCACTGATTACTGGATGTATAAT,0.79
23,GGGTCTTTTTGACCTGTATCTTGTGGTGAC,2.24
24,ATGGTCAGTGTTGATAAGAAAGCTGCAGTC,0.747
25,TGGACTTTGAGTCATAAGAAACATTTTACA,2.86

row,Sequence,binding signal (log2 normalized intensity)
1,CTCCCACGTCGCTGCCGCAGATCCCCGCTC,-1.05
2,TGAGGACTTTGGTCTTATTACTAAGTGAGA,2.3
3,GGGCCGCCTTGGAAAACCCGGCGCGGACAT,-1.23
4,AGACGGGGCTCTCAGAATCTGCCGATCACT,-1.01
5,TTCTTAAGATAAGGACTGTTGGACCTCGAA,2.44
6,TTTGCTATGGCCTTTCTTCATTGTTCGCAT,0.0537
7,TGCCTCCTTCAAGGATTAGCAGATAAATCT,-0.904
8,GGACTTGATGATTGACACTATTATTACTGT,1.26
9,CGCCTTGCACAAATTTCAGATATCTGAATG,0.246
10,GATGATTCCCTTATCTTCTCCCCTGCCAAA,3.36
11,GACCTGTTTGTCTTGCTGGGGAGATCAGAG,1.01
12,GCCTTTCAGGCAGGAGACGATGGTTTTCCA,-1.18
13,ATTTATCTTTCCAGATTGTTCTATTAACCT,1.61
14,TTAGTCCATGACGCAAGCGAGTAAGGCCCG,-1.08
15,CTGATTAGCCTTTCCAAAGGAGGCAATGAG,-1.12
16,CGATTATCTACAGATCTGGAGCCAGCAAGG,-1.12
17,AGGCAATGTCACGTTTATTTCTAACAGCTG,-0.916
18,CCTGGAGGGACTTTGTCCCACAGGAGAAGT,3.01
19,CCACGACAGAATTGACTCTTCGTTTTCTTT,1.38
20,AATGGGTCCGAAGGTCAGCTGACCAACAGA,4.28
21,ATTTGCAGCAAGGCCCAGGGCAAGGACTCT,-1.15
22,CGCGCGTGTGTGTGTGTGTGTGGTGTGTGT,3.49
23,AGCGTCAATGCCCCAGAAAGCCAGCAGGGG,-1.21
24,AGGCATGACAGAGTGTCCTGCCCCCTGGAG,3.9
25,GCTTGGGCGACGGACGCGCCGCGCCGGGGA,-1.3

row,Sequence,binding signal (log2 normalized intensity)
1,TGACCTTTATCCAGTTCTGTGTACAAAGCC,2.38
2,GGCCTGGTGGCTCCCCCAGGCGACTGGGCC,-0.847
3,GATTACGATCCTGCCCTTCTGACCTCCCAG,3.96
4,GAAATGTAACCTTTGGCCAATTGCATTTTT,4.33
5,GTGGTTTCTTCCACTGGAGTCTTGTTTGTC,1.86
6,TTCAATAATACAAGAGGCTTCTTATCAGCA,-1.17
7,CCAATATAGCAAAGAGAGTCAAAGTTCAGG,2.89
8,TTGCACCAGTTTCTCAACAGACCCCTGAAT,2.27
9,CAGTAAGAGGATTTCTTCGCCACTTTCATC,-0.737
10,AACTTAGGCCCATATTCCTTAGATAAAAAG,-1.04
11,GACTGATATTCAAACAGGTCAAGCAATGCT,-1.23
12,GCAGGTGTGGGGGCGGCAGGAGCCACAAGC,-1.2
13,ATCAGCAAGGTAAACATGATGAAAGCAATG,-1
14,AGGAGTTCAGCAGCATCTAAACTCTACTCA,-1.15
15,CTGAACAAACAGCTTCCAGAATAGCCTCTG,-1.18
16,AACCCCTCTCCAAGCCAGAAAGATGTTTGC,2.62
17,TGGTACAGGGCCCAGAAAAGTAGATTGTTA,-1.08
18,TTAAGTCCAGAAAAGACCAAAAAGGCTAAC,-1.2
19,CATGCCACAGCGCCCTCAGTGTTTTCACTG,-0.973
20,ATATATGTACAGCTGTGTATGTGGCAGGCA,1.49
